Test results reported in PMC4336329 (PLoS ONE, 2015).
Among all 310,000 compounds or so, about 2,200 (0.71%) showed an effect of 50% or more. Effects have a minus sign here. Some of the results follow.

These compounds were tested against human ether-à-go-go-related gene (hERG) potassium channel (human, UniProt Q12809) (assay: primary screen, population patch clamp on CHO cells stably expressing hERG).
Sequence of human ether-à-go-go-related gene (hERG) potassium channel (Q12809 whole entry, looked up): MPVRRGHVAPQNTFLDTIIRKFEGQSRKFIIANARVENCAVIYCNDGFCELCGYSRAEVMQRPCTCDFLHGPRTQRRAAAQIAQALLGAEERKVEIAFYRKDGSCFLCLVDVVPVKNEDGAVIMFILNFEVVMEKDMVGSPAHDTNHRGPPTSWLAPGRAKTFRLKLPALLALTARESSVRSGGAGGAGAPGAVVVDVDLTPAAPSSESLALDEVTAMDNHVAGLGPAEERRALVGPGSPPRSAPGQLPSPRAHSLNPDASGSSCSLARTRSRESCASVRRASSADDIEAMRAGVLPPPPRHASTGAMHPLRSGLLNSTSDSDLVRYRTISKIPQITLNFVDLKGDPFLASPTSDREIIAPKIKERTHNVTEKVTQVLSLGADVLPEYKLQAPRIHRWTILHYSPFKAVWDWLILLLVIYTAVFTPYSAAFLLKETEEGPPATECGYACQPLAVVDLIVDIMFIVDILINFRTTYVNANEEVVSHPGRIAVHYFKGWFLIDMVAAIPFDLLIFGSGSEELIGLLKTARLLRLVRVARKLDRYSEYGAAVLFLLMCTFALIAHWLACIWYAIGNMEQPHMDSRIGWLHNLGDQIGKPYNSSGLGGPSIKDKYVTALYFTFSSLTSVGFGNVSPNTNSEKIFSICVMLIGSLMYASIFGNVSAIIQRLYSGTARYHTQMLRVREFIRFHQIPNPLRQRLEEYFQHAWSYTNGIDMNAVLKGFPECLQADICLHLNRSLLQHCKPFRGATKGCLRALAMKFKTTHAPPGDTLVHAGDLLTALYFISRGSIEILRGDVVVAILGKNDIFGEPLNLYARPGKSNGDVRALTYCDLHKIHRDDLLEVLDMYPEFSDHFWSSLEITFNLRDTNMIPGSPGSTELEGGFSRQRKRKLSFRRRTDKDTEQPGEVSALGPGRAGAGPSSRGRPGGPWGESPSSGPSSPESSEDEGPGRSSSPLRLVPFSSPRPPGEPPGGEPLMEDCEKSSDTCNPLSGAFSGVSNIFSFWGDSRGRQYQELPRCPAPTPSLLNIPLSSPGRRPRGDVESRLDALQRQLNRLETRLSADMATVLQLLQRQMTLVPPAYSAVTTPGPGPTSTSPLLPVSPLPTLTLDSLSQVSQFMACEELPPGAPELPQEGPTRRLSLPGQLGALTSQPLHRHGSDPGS

| Compound | hERG current change (%, negative = inhibition) at 1uM [%] |
| --- | --- |
| C=CCn1c(C)cc(C(=O)CSc2nnc(NCc3ccccc3)s2)c1C | 4.17 |
| COC(=O)c1ccc(Oc2ccc(S(=O)(=O)N3CCCCC3)cc2N)cc1 | 10.8 |
| CCCN1C2CCCC1CC(NC(C)=O)C2 (stereo not shown) | 20.3 |
| CCOc1cc(NC(=O)c2ccco2)c(OCC)cc1NC(=O)CCC(=O)NCc1cccnc1 | -3.74 |
| O=C(NC1CCCCC1)c1ccc(-c2cccc([N+](=O)[O-])c2)o1 | 17.3 |
| Oc1ccc(Br)cc1Cn1nnc2ccccc21 | 13.6 |
| O=C(CSC1=Nc2ccccc2C2CC=NN12)Nc1ccc(F)cc1Cl (stereo not shown) | 21.4 |
| N=c1c2c(-c3ccccc3)c(-c3ccccc3)n(Cc3ccco3)c2ncn1Cc1ccccc1 | -4.13 |
| O=C(c1cc(-c2ccc(F)cc2)nc2ccccc12)N1CCN(C2CCS(=O)(=O)C2)CC1 (stereo not shown) | -23.8 |
| O=C(NCCc1ccc(OC(F)F)cc1)C1CC(=O)N(c2ccc3c(c2)OCCO3)C1 (stereo not shown) | -11.9 |
| CCOC(=O)c1c(-c2cccc([N+](=O)[O-])c2)csc1NC(=O)C1CC1 | 1.32 |
| Cc1cc(C)c(S(=O)(=O)N(CC(=O)O)C2CCCCC2)c(C)c1 | 9.45 |
| COc1ccc(NC(=O)c2ccccc2NS(=O)(=O)c2ccc(C)cc2)c([N+](=O)[O-])c1 | 7.95 |
| COCCNc1nnc(Cc2ccc(OC)c(OC)c2)c(=O)[nH]1 | 19.7 |
| COCC1CCCN(Cc2cn[nH]c2-c2cc3ccccc3o2)C1 (stereo not shown) | 0.0962 |
| COCc1c(C(=O)N/N=C/c2c[nH]c3ccccc23)nnn1-c1nonc1N | 14.5 |
| Cc1cc(C)nc(NC(=O)c2cccs2)n1 | 6.88 |
| Cc1ccccc1CN1CCN(C(=O)c2ccc(F)cc2)CC1.O=C(O)C(=O)O | 14.6 |
| COc1cc(CN2CCC(n3nccc3NC(=O)C3CCOC3)CC2)ccc1F (stereo not shown) | 2.37 |
| COc1ccc(CCn2c3c(c(=O)[nH]c2=O)C(NC(=O)c2cccs2)(C(F)(F)F)C(=O)N3)cc1OC (stereo not shown) | 10.8 |
| COc1ccc(Cn2nnnc2CN2CCC(O)(c3ccccc3F)CC2)cc1 | 7.8 |
| O=C(OCC1COc2ccccc2O1)c1c(F)cccc1F (stereo not shown) | 11.8 |

| Compound | hERG current change (%, negative = inhibition) at 1uM [%] |
| --- | --- |
| Cc1cc(Cl)ccc1NC(=O)CN1CCCC1 | 13.6 |
| CCOc1ccc(NC(=O)CSc2nnc(C34CC5CC(CC(C5)C3)C4)n2C)cc1 | 4.85 |
| NC(=NC1CCCCC1)NS(=O)(=O)c1ccccc1 | 15.6 |
| O=C(O)CCCC(=O)NCCc1cccc(Cl)c1 | 6.22 |
| CC(NC(=O)Nc1cccc([N+](=O)[O-])c1)(C(F)(F)F)C(F)(F)F | 14.2 |
| COc1ccc(C(=O)CSc2nnc(-c3ccco3)o2)cc1 | 2.29 |
| O=C(Nc1ccccc1OC(F)F)c1oc2ccccc2c1COc1ccccc1 | 7.45 |
| N#CCCN(Cc1ccccc1)C(=O)Nc1ccccc1 | 16.7 |
| Cc1ccc(C)c(OCCSc2nnc(-c3cccnc3)n2N)c1 | 10.7 |
| O=C(CSC(=S)N1CCOCC1)Nc1nc(-c2ccccc2)c(-c2ccccc2)o1 | 4.71 |
| CN[C@H]1CCc2cc(OC)c(OC)c(OC)c2-c2ccc(N(C)CC(OC)OC)c(=O)cc21 | 23.2 |
| CCN(CC)CCNC(=O)c1ccc2c(c1)NC(=O)c1ccccc1S2 | -1.15 |
| CCOc1ccc(Br)cc1C(=O)N/N=C/c1c[nH]c2ccccc12 | 16.5 |
| O=C(CCl)NCCCCCCCCCNC(=O)CCl | 16.7 |
| Cc1cc(/C=N/O)c(C)n1-c1ccccc1 | 14 |
| Cc1ccccc1C(=O)N1CCN(c2nc(N3CCOCC3)nc(N3CCOCC3)n2)CC1 | 6.55 |
| O=C(Nc1ccccc1C(=O)N/N=C/c1ccccc1)c1ccco1 | 11 |
| Cc1ccc(S(=O)(=O)NC(=O)NCc2ccc3c(c2)OCO3)cc1 | 10.2 |
| C=CCNC(=O)NS(=O)(=O)c1ccc(C)cc1 | 16.6 |
| Cc1cc(NC(=O)C(C)SCC(=O)Nc2ccc(SC(F)F)cc2)no1 (stereo not shown) | 4.96 |
| CN(Cc1ccccc1)CC(O)COc1ccc(CNCCc2ccncc2)cc1 (stereo not shown) | 14.2 |
| Cc1cccn2c(=O)c(/C=C(\C#N)S(=O)(=O)c3ccccc3)c(N3CCN(C)CC3)nc12 | -14.3 |

| Compound | hERG current change (%, negative = inhibition) at 1uM [%] |
| --- | --- |
| Cc1ccc(-n2nc(C(=O)c3ccccc3)n3c(=O)cc(-c4ccccc4)nc23)cc1 | 14.7 |
| CN(C)C=O.N=C1C(c2nc(-c3ccc(Br)cc3)cs2)=C(O)CN1NC(=O)c1ccc([N+](=O)[O-])cc1 | 16.1 |
| COc1ccc(CN(C)C(=O)/C=C/c2ccc(S(=O)(=O)N3CCCCCC3)cc2)cc1 | 2.2 |
| CC(C)c1cc(C(=O)NCCc2ccccc2)no1 | -6.34 |
| COc1ccc(NC(=O)COc2ccc(C(=O)NCc3cccnc3)cc2OC)cc1 | 11 |
| CC(=O)c1cccc(NC(=O)c2ccoc2C)c1 | 7.42 |
| CCOc1ccc2[nH]c3ncccc3c(=O)c2c1 | 17.8 |
| CCCOc1c(OC)cccc1C1CC(=O)Nc2cc3c(cc21)OCCO3 (stereo not shown) | 2.08 |
| O=S(=O)(c1ccccc1)N1N=C(c2ccccc2)CC1c1ccccc1F (stereo not shown) | 11.3 |
| O=C(Nc1nccs1)C(NS(=O)(=O)c1ccc(Br)s1)c1ccccc1 (stereo not shown) | 3.84 |
| COC(=O)C(C)n1nc(C)n(-c2ccc(C)cc2)c1=O (stereo not shown) | -5.24 |
| CCCCSc1nnc([C@H](C)NC(=O)OC(C)(C)C)o1 | 10.9 |
| C=CCc1cc(/C=N/NC(=O)CSc2nnc(CCCc3ccc(OC)cc3)o2)cc(OC)c1O | 8.78 |
| CCc1nc(N)c(C#N)c(-c2cccn2C)c1C | 11.5 |
| CCN1C[C@]2(COC)CC[C@H](O)[C@]34C1[C@](O)([C@@H](OC)[C@H]23)[C@@]1(O)C[C@H](OC)[C@H]2C[C@@H]4[C@@H]1[C@H]2OC | 14.5 |
| COc1ccc(CC(=O)N2CCCC2)c(OC)c1 | 12.4 |
| COc1ccc(NC(=O)COC(=O)/C=C/c2ccccc2[N+](=O)[O-])cc1 | -11.5 |
| COc1ccc(NC(=O)C(C)N2c3cccc4cccc(c34)S2(=O)=O)c(OC)c1 (stereo not shown) | 9.42 |
| O=C(C1=C(O)C(=O)N(CCCn2ccnc2)C1c1cccc(Br)c1)c1ccco1 (stereo not shown) | 12.1 |
| O=C(NCc1ccccc1)c1cc[n+](Cc2ccccc2)cc1.[Cl-] | 10 |
| CC(C)c1nnc(NC(=O)CCC(=O)N2CCN(Cc3ccc(F)cc3)CC2)s1 | 7.95 |
| N#CC1=C(N)N=C(SCc2cccc3ccccc23)C(C(N)=O)C12CCCCC2 (stereo not shown) | 10.6 |

| Compound | hERG current change (%, negative = inhibition) at 1uM [%] |
| --- | --- |
| COC(=O)c1sccc1NC(=S)Nc1cc(C)ccc1OC | 16.5 |
| Cc1ccc(S(=O)(=O)N2CCC(C(=O)NC3CC3)CC2)cc1 | 1.7 |
| Cc1ccc(CNC(=O)CSc2nc(C)cc(C)c2C#N)cc1 | 9.73 |
| O=S(=O)(Cc1ccccc1Cl)c1ncn[nH]1 | 8.77 |
| CCC(CC)c1nnc(NC(=O)COc2ccc3c(c2)OCO3)s1 | 9.68 |
| CNC(=O)COC(=O)c1cc(-c2ccccc2)nn1-c1ccccc1 | 12.4 |
| CCOC(=O)c1ccc(S(=O)(=O)NNC(=O)c2cccc(N(C)C)c2)cc1 | 23.4 |
| C=C(C)CNC(=S)/N=c1\scc(C)n1CC | 10.5 |
| CC(C)C12CCC(C(=O)O)C(C1)C(=O)O2 (stereo not shown) | 12.6 |
| Cc1ccc(Nc2cc(C)nc(N3CCOCC3)n2)c(C)c1 | 2.72 |
| CC(=O)C1=C(C)NC(SCC(=O)c2ccccc2)=C(C#N)C1CC(C)C (stereo not shown) | 5.79 |
| COc1cc(/C=N/NC(=O)c2sc3nc(C)cc(C)c3c2N)ccc1O | 2.82 |
| CC(=O)c1c(C)[nH]c(C(=O)OCC(=O)N2CCc3ccccc3C2)c1C | 11.1 |
| COc1ccc(OC)c(/C=N/NC(=O)Cn2ccnc2C)c1 | 12.2 |
| O=C(COC(=O)c1ccccn1)Nc1ccc2c(c1)OCO2 | 5.94 |
| CC(NC(=O)NC12CC3CC(CC(C3)C1)C2)c1ccc2c(c1)OCO2 (stereo not shown) | 19.7 |
| Cc1cc(NC(=O)C(C)SCC(=O)OC(C)C(=O)Nc2cccc(C#N)c2)no1 (stereo not shown) | -1.29 |
| CS(=O)(=O)c1cccc(S(=O)(=O)N2CCN(c3ccccn3)CC2)c1 | 10.6 |
| O=C(Cn1c[n+](CC(=O)c2ccc([N+](=O)[O-])cc2)cn1)c1ccc([N+](=O)[O-])cc1.[Br-] | 28.1 |
| O=C(COC(=O)c1cccs1)NCc1ccccc1 | 11.4 |
| CNc1ccc(Cl)nn1 | 4.11 |
| COc1ccc(-n2nc(C(=O)NCC(=O)NCc3ccco3)c3ccccc3c2=O)c(OC)c1 | 11 |
